Measurements as given in PubChem BioAssay AID1346428 (National Center for Advancing Translational Sciences (NCATS), 2018).
Hit rate of the full screen: of about 48,000 compounds, about 1,200 (2.5%) were called active. Roughly 2% stayed inconclusive and do not appear here.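 Rule for the calls: active = activation of at least 60% and not above a set upper limit (about 1 call in 100 departs from these limits); inconclusive = activation of 40% to 60%, or above that upper limit; inactive = activation under 40%.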 The list shows a part of the results.
Note: 0% is about no effect.

What follows are compounds tested against Probable G-protein coupled receptor 32 (Homo sapiens) (UniProt O75388) (assay: qHTS for Agonists of Human Resolvin D1 Receptor DRV1). Details: CHO-K1 GPR32 beta-arrestin PathHunter luminescence, 90 min; at 76.9 µM; active compounds read high; zero percent set by DMSO-only wells.
Chain of UniProt O75388 (O75388 whole entry, looked up, the tested form may be a part): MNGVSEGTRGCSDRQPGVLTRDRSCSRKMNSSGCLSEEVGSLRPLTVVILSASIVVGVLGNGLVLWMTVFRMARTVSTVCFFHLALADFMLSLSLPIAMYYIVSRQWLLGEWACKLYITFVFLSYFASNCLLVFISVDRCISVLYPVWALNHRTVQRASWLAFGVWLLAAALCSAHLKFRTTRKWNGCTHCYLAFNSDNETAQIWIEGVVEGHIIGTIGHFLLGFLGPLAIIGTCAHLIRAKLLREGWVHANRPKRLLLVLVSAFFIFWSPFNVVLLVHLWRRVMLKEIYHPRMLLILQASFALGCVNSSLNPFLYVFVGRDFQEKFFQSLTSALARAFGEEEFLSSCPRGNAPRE
Summary of the method: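 Agonism was scored by beta-Gal fragment complementation (chemiluminescent read, 1 h detection at ambient temperature) reporting beta-arrestin binding to GPR32 in engineered CHO-K1 cells. Compound treatment lasted 90 min at 37 C, normalized to a DMSO basal control.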
With `COc1ccc(C(=O)Nc2nc3n(n2)C(c2ccc(F)cc2)C=C(c2ccc(Cl)cc2)N3)cc1` (stereo unspecified) the activation was inactive: 12.5%.
With `CCOC(=O)c1ccc(NC(=O)c2cc3c([nH]c2=O)CC(c2ccccc2)CC3=O)cc1` (stereo unspecified) the activation was inactive: 0.63%.
`N#C/C(=C1\SCC(c2ccccc2Cl)S1)n1ccnc1` (stereo unspecified) was tested, and the activation was inactive: 42.2%.
`Cc1cccc(NC(=O)Cn2cc(S(=O)(=O)Cc3ccccc3Cl)c3ccccc32)c1` was tested, and the activation was inactive: 4.47%.
`COc1cccc(-c2n[nH]c3c2C(c2ccccn2)N(C)C3=O)c1` (stereo unspecified) was tested, and the activation was inactive: -22.1%.
With `O=C(CC1N=C2c3ccccc3N=C(SCC(=O)Nc3ccc(F)cc3)N2C1=O)NCc1ccc2c(c1)OCO2` (stereo unspecified) the activation was inactive: -20.7%.
For `CCCCC1CCC(CCCC(C)CCC(=O)O)CC1` (stereo unspecified), the activation was inactive: -7.39%.
In the case of `COc1ccc(-n2cc(-c3ccc4c(c3)OCO4)n(CC(=O)Nc3cccc(C)c3)c2=O)cc1`, the activation is reported as inactive: -20.3%.
For `CSc1ncc(Cl)c(C(=O)N(Cc2ccc(C(C)C)cc2)C2CCS(=O)(=O)C2)n1` (stereo unspecified), the activation was inactive: -20.5%.
In the case of `Cc1ccccc1Cn1c(SCc2ccc(C(=O)NCCc3ccccc3)cc2)nc2ccncc21`, the activation is reported as inactive: -9.82%.
In the case of `Cc1cc(C)n(C(C)CC(=O)Nc2ccc(C)c(F)c2)n1` (stereo unspecified), the activation is reported as inactive: -8.16%.
`Cc1ccccc1CNC(=O)c1ccc(CN2CC(=O)N3CCCCC3C2=O)cc1` (stereo unspecified) was tested, and the activation was inactive: -4.41%.
In the case of `CCc1nnc2c3ccccc3nc(N3CCN(c4cc(C)ccc4C)CC3)n12`, the activation is reported as inactive: -5.51%.
In the case of `CCCN(CCC)C(=O)C1CCCN(c2ncnc3c2nc2n3CCCCC2)C1` (stereo unspecified), the activation is reported as inactive: -22%.
In the case of `COc1ccc(N2CCN(S(=O)(=O)CCNC(=O)c3c(F)cccc3Cl)CC2)cc1`, the activation is reported as inactive: -6.85%.
`COc1ccc(CNC(=O)C(=O)Nc2cc(Cl)ccc2OC)cc1` was tested, and the activation was inactive: 4.29%.
For `Cc1ccccc1CN1C(=O)c2ccccc2S(=O)c2ccc(C(=O)NCc3ccc4c(c3)OCO4)cc21` (stereo unspecified), the activation was inactive: -14.6%.
`COc1cccc(CNC(=O)CCC(=O)N2CC(C)Sc3ccccc32)c1` (stereo unspecified) was tested, and the activation was inactive: -24%.
For `Cc1ccc(S(=O)(=O)c2nnn3c2nc(N2CCC(C(N)=O)CC2)c2cc(Cl)ccc23)cc1C`, the activation was inactive: -6.59%.
For `Cc1ccc(NS(=O)(=O)c2c(C)nc3sc(C)cn3c2=O)c(C)c1`, the activation was inactive: -17.8%.
With `Cc1nc2c(c(C)nn2C(C)(C)C)c(C)c1CCC(=O)Nc1ccc(Br)cc1Br` the activation was inactive: -29%.
With `CNCC[C@H](Oc1cccc2ccccc12)c1cccs1` the activation was active: 99.1%.
For `O=C(CCCN1CCC(O)(c2ccc(Br)cc2)CC1)c1ccc(F)cc1`, the activation was inactive: 7.39%.
`Cc1ccc(NC(=O)[C@@H](c2ccccc2)N2Cc3ccccc3C2=O)cc1F` was tested, and the activation was inactive: -9.61%.
In the case of `CCC(=O)Nc1cc2nn(-c3ccc(C)cc3)nc2cc1C`, the activation is reported as inactive: -72.4%.
With `CCCc1nn2c(=O)cc(COC(=O)c3ccco3)nc2s1` the activation was inactive: 7.4%.
For `COc1ccc(CCNC(=O)Cn2c(=O)c3cccn3c3ccccc32)cc1OC`, the activation was inactive: -8.67%.
`CC(=O)Nc1c(C)nn(-c2ccccc2)c1N1CCC(C(=O)Nc2cccc(C(F)(F)F)c2)CC1` was tested, and the activation was inactive: -11.9%.
`CCCCOc1ccccc1C1CC(=O)Nc2cc(OC)c(OC)cc21` (stereo unspecified) was tested, and the activation was inactive: -11.6%.
For `CCOC(=O)Cn1c(=O)n(CC2CCCO2)c2nc(-c3ccc(CC)cc3)nc(C(N)=O)c21` (stereo unspecified), the activation was inactive: -6.25%.
For `O=C(CSc1ncc2c(n1)-c1ccc(Cl)cc1N(Cc1ccccc1)S2(=O)=O)Nc1ccccc1C(F)(F)F`, the activation was inactive: -3.58%.
With `Cc1c(C(=O)NCc2ccc(F)cc2)sc2nc(-c3ccc(F)cc3)cn12` the activation was inactive: -0.292%.
In the case of `O=C(CCn1cnc2onc(-c3ccc(F)cc3)c2c1=O)N1CCN(c2ccccc2F)CC1`, the activation is reported as inactive: 6.57%.
With `COC(=O)c1ccccc1NC(=O)Cn1c(=O)cc(C)c2c(C)nn(-c3cccc(Cl)c3C)c21` the activation was inactive: 10.3%.
For `CCOC(=O)C1CCCN(C(=O)c2ccc(NC(=O)c3nsc4ccccc34)cc2)C1` (stereo unspecified), the activation was inactive: 3.13%.
In the case of `Cc1ccc2c(CC(=O)N(Cc3cccc(Cl)c3)C3CCS(=O)(=O)C3)coc2c1` (stereo unspecified), the activation is reported as inactive: -9.07%.
With `Cc1ccc(C(=O)CC2(O)C(=O)N(Cc3ccccc3)c3ccccc32)c(C)c1` (stereo unspecified) the activation was inactive: -12%.
`CNS(=O)(=O)c1cn(CC(=O)N2CCN(c3ccccc3OC)CC2)cc1S(=O)(=O)NC` was tested, and the activation was inactive: 0.0762%.
In the case of `COc1ccc(Cl)cc1NC(=O)Cn1cnc2sc(C)c(S(=O)(=O)N3CCN(c4ccccc4OC)CC3)c2c1=O`, the activation is reported as inactive: -2.48%.
In the case of `COc1cccc(N2CCN(Cc3cc(=O)oc4cc(C)ccc34)CC2)c1`, the activation is reported as inactive: -24.6%.
In the case of `Cc1ccc(-n2nnnc2CNC(=O)c2ccccc2C)cc1C`, the activation is reported as inactive: 15.3%.
